PMC4336329 (PLoS ONE, 2015)
About 2,200 (0.71%) of roughly 310,000 compounds showed an effect of 50% or more. The effect is printed as a negative number. The list shows a part of the results.

target: human ether-à-go-go-related gene (hERG) potassium channel (human, UniProt Q12809); assay: primary screen, population patch clamp on CHO cells stably expressing hERG
Sequence (Q12809 whole entry, looked up): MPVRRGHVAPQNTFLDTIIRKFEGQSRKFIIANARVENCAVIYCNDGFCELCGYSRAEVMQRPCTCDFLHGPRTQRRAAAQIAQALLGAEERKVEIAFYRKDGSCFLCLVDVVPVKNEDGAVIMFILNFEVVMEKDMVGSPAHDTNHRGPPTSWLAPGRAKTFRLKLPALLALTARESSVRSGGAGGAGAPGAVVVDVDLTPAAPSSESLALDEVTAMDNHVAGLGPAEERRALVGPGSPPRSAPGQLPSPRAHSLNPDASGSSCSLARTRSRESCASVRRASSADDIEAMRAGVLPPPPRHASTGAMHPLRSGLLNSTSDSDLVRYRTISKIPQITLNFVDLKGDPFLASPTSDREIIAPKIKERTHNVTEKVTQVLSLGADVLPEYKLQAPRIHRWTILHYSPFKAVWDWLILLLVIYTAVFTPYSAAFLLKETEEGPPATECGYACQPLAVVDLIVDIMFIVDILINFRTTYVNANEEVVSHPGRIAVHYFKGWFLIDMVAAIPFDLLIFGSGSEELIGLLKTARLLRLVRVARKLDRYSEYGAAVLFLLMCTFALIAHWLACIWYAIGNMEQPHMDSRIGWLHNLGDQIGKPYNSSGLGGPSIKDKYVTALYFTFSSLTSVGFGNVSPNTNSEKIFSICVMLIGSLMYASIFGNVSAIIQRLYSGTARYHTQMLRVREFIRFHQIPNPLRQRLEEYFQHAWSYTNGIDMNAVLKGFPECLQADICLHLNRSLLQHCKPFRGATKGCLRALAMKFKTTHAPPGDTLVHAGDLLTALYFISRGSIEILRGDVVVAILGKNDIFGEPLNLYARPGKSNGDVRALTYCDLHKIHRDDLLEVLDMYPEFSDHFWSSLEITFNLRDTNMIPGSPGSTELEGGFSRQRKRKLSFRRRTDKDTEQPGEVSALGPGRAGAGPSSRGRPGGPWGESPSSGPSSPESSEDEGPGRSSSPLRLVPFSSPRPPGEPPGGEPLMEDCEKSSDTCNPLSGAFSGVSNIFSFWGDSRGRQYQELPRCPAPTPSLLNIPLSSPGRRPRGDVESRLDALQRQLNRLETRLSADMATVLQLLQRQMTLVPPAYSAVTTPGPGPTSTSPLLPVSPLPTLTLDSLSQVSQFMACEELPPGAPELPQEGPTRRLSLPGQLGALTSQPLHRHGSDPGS

SMILES	hERG current change (%, negative = inhibition) at 1uM
CCn1c(SCC(=O)Nc2c(C)n(C)n(-c3ccccc3)c2=O)nc2c1c(=O)n(C)c(=O)n2C	10.6%
O=C(Nc1ccc(Cl)cc1)C1CC=CCC1C(=O)OCC(F)(F)C(F)F (stereo not shown)	-1.48%
COC(=O)c1cc(S(=O)(=O)N2CCN(c3ccc([N+](=O)[O-])cc3)CC2)c[nH]1	-21.3%
Cl.OCCNc1nc(-c2ccccc2)nc2ccccc12	6.32%
CSc1nc(-c2ccc(Cl)cc2)c(C#N)c(=O)[nH]1	4.43%
Cc1c(NS(=O)(=O)c2cccc(C(=O)NCc3ccc(Cl)cc3)c2)c(=O)n(-c2ccccc2)n1C	12.5%
N=c1occ(C(=O)c2cc(F)ccc2O)cc1C(=O)NC1CCCCC1	8.14%
COc1ccc(/C=N/NC(=O)c2csc(-n3nc(C)cc3C(F)(F)F)n2)cc1	1.29%
CN(CC(=O)Nc1cccc(F)c1)C(=O)CCSc1ccc(F)cc1	16.2%
CCN(CC)c1ccc(NC(=O)CN2CCN(CC(=O)Nc3ccc(F)cc3)CC2)cc1	-84.5%
Cn1nc(C(=O)Nc2cccc(S(=O)(=O)N3CCOCC3)c2)c2ccccc2c1=O	9.49%
Cc1cccc(NC(=S)NCC(c2ccccc2)N(C)C)c1 (stereo not shown)	14.2%
COc1ccc(C)cc1NC(=O)CN1CCCN(S(=O)(=O)c2ccc(Br)cc2)CC1	7.55%
COc1ccc(S(=O)(=O)NCCCCNS(=O)(=O)c2ccc(OC)cc2)cc1	16.2%
N#Cc1ccsc1NC(=O)CN1CCN(S(=O)(=O)c2cc(Cl)ccc2Cl)CC1	14.2%
CCCCn1c(N)c(N(CC(C)C)C(=O)C2CCN(S(=O)(=O)c3ccc(C)cc3C)CC2)c(=O)[nH]c1=O	2.62%
OCC[C@H]1C[C@H](O)[C@@H](O)[C@@]2(CCCc3ccccc3O2)O1	9.58%
NC(=O)C1CCN(S(=O)(=O)c2cccc(S(=O)(=O)N3CCCCC3)c2)CC1	10.2%
CN(C)c1nc(-c2cccs2)cc(C(F)(F)F)c1C#N	13%
O=C(NCc1c(F)cccc1F)c1cc(COc2c(F)cccc2F)on1	9.34%
COc1ccccc1NC(=O)N1CCC(c2nc3ccccc3o2)CC1	7.38%
Cc1cc(Cl)c2oc(C(=O)NC3CCC(O)CC3)c(C)c2c1 (stereo not shown)	9.2%

SMILES	hERG current change (%, negative = inhibition) at 1uM
COc1cc([N+](=O)[O-])ccc1NC(=O)CCS(=O)(=O)c1ccc2c(c1)n(C)c(=O)c(=O)n2C	9.09%
CC1CCN(CCCOc2ccc(OCc3ccccc3)cc2)CC1.O=C(O)C(=O)O	-14.1%
O=C(CCc1ccc(S(=O)(=O)N2CCOCC2)cc1)N/N=C/c1cccc(O)c1	-3.37%
Cc1nn(-c2ccccc2)c(C)c1NC(=O)c1cccs1	10.9%
Cc1cccc(C(C)(C)C)c1OCCOCCN1CCCC1	8.91%
COC(=O)c1ccc(COc2ccc(NC(C)=O)cc2)o1	9.7%
CCOCCn1c(=O)c2c(nc3n2CCCN3Cc2ccccc2)n(C)c1=O	8.74%
Clc1ccc2c(c1)C(N1CCNCC1)Cc1ccccc1S2.O=C(O)/C=C\C(=O)O (stereo not shown)	-5.92%
Cc1c(NC(=O)c2nn3c(c2Br)NC(c2ccccc2)CC3C(F)(F)F)c(=O)n(-c2ccccc2)n1C (stereo not shown)	8.76%
Cc1ccc(-c2cc(C(=O)N/N=C/c3ccco3)n[nH]2)s1	-0.673%
Nc1nc(N)n(-c2ccccc2)c(=Nc2ccccc2)n1	12.4%
CNC(=O)c1ccccc1NC(=O)c1ccc(C)c(S(=O)(=O)N2CCCCC2)c1	-2.21%
COc1cccc(CN2CCN(Cc3c(C)nn(C(C)C)c3C)CC2CCO)c1 (stereo not shown)	7.3%
CC(C)(C)CC(=O)NC(=S)Nc1ccccc1[N+](=O)[O-]	12.7%
C=CCNC(=O)C(C)N1C(=O)c2ccccc2C1=O (stereo not shown)	12.2%
O=S(=O)(c1ccccc1)[C@@]1(c2ccccc2)C[C@@H]2ON=C(c3cccc(-c4ccccc4)c3)[C@@H]2C1	5.04%
CCCc1cc(=O)[nH]c(=S)[nH]1	17.4%
Cc1ccc(CNC(=O)C2CCC(CNS(=O)(=O)c3cccc4cccnc34)CC2)cc1 (stereo not shown)	3.3%
O=C(COc1ccccc1Cl)NCCNC(=O)c1cccnc1	23.9%
CCC(c1nnnn1CCc1ccccc1)N(Cc1ccco1)Cc1cc2cccc(C)c2[nH]c1=O (stereo not shown)	13.3%
CCn1cc(/C=N\NC(=O)c2ccccc2Cl)cn1	11.4%
Cc1onc(-c2c(Cl)cccc2Cl)c1C(=O)c1ccccc1	19.1%

SMILES	hERG current change (%, negative = inhibition) at 1uM
COC(=O)CCC(=O)OC1(C)C(=O)C=C2C=C(C3CC3)N(C3CCCC3)C=C2C1=O (stereo not shown)	10.1%
CCOC(=O)Cn1c(=NC(=O)CSC(C)=O)sc2cc(OC)ccc21	15.1%
Cc1cc(C)nc(S/C=C/C(=O)c2ccccc2)n1	13.7%
OCCN=Cc1c(O)[nH]c2ccccc12	13.8%
CC(=O)Nc1cccc(S(=O)(=O)N2CCCCCC2)c1	5.93%
C/C(=C\c1cccc(Br)c1)C(=O)c1c(C)cc(C)[nH]c1=O	13.5%
OCCCCc1nccc2c1[nH]c1ccccc12	2.06%
COc1ccc(C(O)(CCN2CCOCC2)c2ccccc2)cc1 (stereo not shown)	10.4%
COc1ccc(C)cc1NC(=O)C(OC(=O)c1cccc(S(=O)(=O)N(C)c2ccccc2)c1)c1ccccc1 (stereo not shown)	12%
COc1ccc(N2CCN(S(=O)(=O)CC34CCC(CC3=O)C4(C)C)CC2)cc1 (stereo not shown)	16.8%
COc1ccc(NC(=O)COC(=O)c2ccc(C)c(S(=O)(=O)N3CCCCC3)c2)cc1	-2.31%
S=C1NC2(CCCC2)Nc2ccccc21	7.5%
Oc1c(Br)cc(Br)cc1/C=N/n1c(-c2ccccc2)n[nH]c1=S	13.7%
O=C1C=C(N2CCOCC2)C2(CCCCC2)O1	13.2%
O=C(CSc1nc2ccccc2c(=O)n1-c1ccc(OC(F)F)cc1)NC1CC1	-1.7%
Cc1ccc(S(=O)(=O)N2CCC(C(=O)NNC(=O)c3ccc(F)cc3)CC2)cc1	13.8%
Cc1sc2ncnc(SCC(=O)c3ccc(Cl)s3)c2c1C	14%
COc1cc(CNc2ccc(N3CCCC3)cc2)ccc1OCc1ccccc1	19.6%
CCN(CC(=O)Nc1c(F)cccc1F)C(=O)C1CC(=O)N(c2ccccc2OC)C1 (stereo not shown)	7.9%
Cc1ccc(NS(=O)(=O)c2ccc(C(=O)NNC(=O)c3ccccc3O)cc2)cc1	4.12%
CCc1ccc2c(c1)CCCN2C(=O)c1ccccc1C(=O)O	-13%
Cc1ccc(S(=O)(=O)N(C)c2nc3ccccc3[nH]c2=S)cc1	9.32%

SMILES	hERG current change (%, negative = inhibition) at 1uM
Cc1nc2ncccn2c1-c1csc(Nc2cccc(C(=O)O)c2)n1	0.117%
CCc1cc2c(=O)c(-c3nc4ccccc4n3C)c(COCC(=O)O)oc2cc1OC(=O)C(C)(C)C	11.4%
Cc1ccccc1N(CC(=O)N/N=C/c1ccc(N(C)C)cc1)C(=O)c1ccccc1	4.15%
CC(=O)Nc1ccc(C(=O)NCCCOC(C)C)cc1	8.55%
CN1CCC(O)(c2cccs2)C(C(=O)c2cccs2)C1 (stereo not shown)	12.4%
Nc1nc(N)nc(-c2ccc(Cl)c(Cl)c2)n1	3.92%
NC(=O)Nc1ccccc1C(=O)NCCc1ccccc1	9.22%
CN(C(=O)c1cncc(Br)c1)C1C2CC3CC(C2)CC1C3 (stereo not shown)	19.9%
Cn1c(=O)n(CC(=O)NCc2cccnc2)c2ccccc21	-7.46%
Nc1ccc(C(=O)OCCc2ccccc2)cc1	10.6%
CCCCC(=O)N(c1ccc(C(=O)O)cc1)c1nc(-c2ccc(Cl)cc2)c(CC)s1	5.34%
CCOc1cc(/C=N/NC(=O)COc2ccc(Cl)cc2)ccc1OS(=O)(=O)c1ccccc1	7.47%
COc1ccc(NC(=O)Nc2ccc3nonc3c2)cc1	1.49%
C=C(C)CNC(=O)CCc1nnc(Cc2cccc(C(F)(F)F)c2)o1	15.5%
CCOC(=O)c1c(NC(=O)CSc2nnc(-c3cccc(C)c3)n2CC)sc(C(C)=O)c1C	9.04%
CC(=O)N1N=C(c2ccccc2)OC1c1cccnc1 (stereo not shown)	11%
Cc1cc(C(=O)NN)c(Cl)cc1Cl	3.26%
CCOC(=O)C(C(=O)OCC)C(CC(=O)C1CC1)c1ccccc1 (stereo not shown)	7.69%
CC(C)CC(=O)c1c[nH]c(C(=O)NCc2cccnc2)c1	5.75%
CCCCOc1ccc(CN2CCCCC2)cc1	2.91%
CCCCN(CC)C(=O)c1ccc(-c2ccccc2)cc1	10.3%
COc1ccc(CNC(=O)CSc2ccsc2[N+](=O)[O-])cc1	4.67%
